The text below walks through data of article PMC4336329 (PLoS ONE, 2015).

The structures appear in SMILES notation. The whole screen tested about 310,000 compounds, of which about 2,200 (0.71%) showed an effect of 50% or more. The effect is printed as a negative number. Some of the results follow.

In this assay the target is human ether-à-go-go-related gene (hERG) potassium channel (human, UniProt Q12809). Nature of the assay: primary screen, population patch clamp on CHO cells stably expressing hERG.
human ether-à-go-go-related gene (hERG) potassium channel, sequence (Q12809 whole entry, looked up): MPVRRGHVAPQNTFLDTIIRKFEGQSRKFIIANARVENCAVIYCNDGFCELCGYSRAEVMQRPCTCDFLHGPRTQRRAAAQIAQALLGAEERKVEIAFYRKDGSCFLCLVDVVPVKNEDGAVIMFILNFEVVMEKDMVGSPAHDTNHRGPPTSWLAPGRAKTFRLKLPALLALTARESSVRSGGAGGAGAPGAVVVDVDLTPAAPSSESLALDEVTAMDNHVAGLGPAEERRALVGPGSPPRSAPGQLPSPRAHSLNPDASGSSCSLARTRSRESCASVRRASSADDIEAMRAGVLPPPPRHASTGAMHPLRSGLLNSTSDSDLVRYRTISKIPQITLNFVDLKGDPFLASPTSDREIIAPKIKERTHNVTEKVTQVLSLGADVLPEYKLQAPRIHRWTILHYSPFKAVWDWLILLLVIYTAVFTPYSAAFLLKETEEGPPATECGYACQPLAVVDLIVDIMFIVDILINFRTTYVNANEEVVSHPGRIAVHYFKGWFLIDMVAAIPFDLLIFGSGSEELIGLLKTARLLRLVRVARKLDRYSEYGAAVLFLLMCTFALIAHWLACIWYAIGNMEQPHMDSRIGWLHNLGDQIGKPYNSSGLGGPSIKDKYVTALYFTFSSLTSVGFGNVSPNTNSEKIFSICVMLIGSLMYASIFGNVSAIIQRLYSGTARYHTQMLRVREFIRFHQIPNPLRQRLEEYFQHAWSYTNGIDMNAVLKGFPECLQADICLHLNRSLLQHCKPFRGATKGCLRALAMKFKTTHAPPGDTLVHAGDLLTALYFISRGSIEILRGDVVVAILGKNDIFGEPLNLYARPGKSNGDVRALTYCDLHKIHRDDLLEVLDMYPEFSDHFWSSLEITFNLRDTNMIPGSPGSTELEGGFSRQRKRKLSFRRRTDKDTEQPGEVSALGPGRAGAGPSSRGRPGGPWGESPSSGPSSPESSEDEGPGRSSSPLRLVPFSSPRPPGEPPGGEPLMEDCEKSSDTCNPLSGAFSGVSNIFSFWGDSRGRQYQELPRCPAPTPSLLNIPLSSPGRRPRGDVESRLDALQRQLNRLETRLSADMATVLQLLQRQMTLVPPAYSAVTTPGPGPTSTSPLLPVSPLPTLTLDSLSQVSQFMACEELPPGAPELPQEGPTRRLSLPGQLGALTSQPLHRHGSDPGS
In the case of `Cc1cc(C)c(C)c(S(=O)(=O)N2CCN(C(=S)NCC3CCCO3)CC2)c1C` (stereo not drawn), the “hERG current change (%, negative = inhibition) at 1uM” value is reported as 7.28%.
With `COc1ccc(S(=O)(=O)N(C(=O)c2ccncc2)c2ccc(OC(=O)c3ccncc3)cc2)cc1`, the “hERG current change (%, negative = inhibition) at 1uM” value amounted to 6.3%.
Next, `O=C(NC1CC1)c1ccc(S(=O)(=O)NCC2CCCCC2)cc1`: 12.4%; `COc1cccc(Oc2ccc(C(F)(F)F)cc2NC(=O)c2cccc(F)c2)c1`: 3.33%; `O=C(COC(=O)/C=C/c1ccc(OC(F)F)cc1)Nc1ccc(S(=O)(=O)N2CCCC2)cc1`: 0.851%.
With `CCOc1ccc(NC(=O)CN(C)C(=O)Cc2sc(C)nc2-c2ccc(F)cc2)cc1OCC`, the “hERG current change (%, negative = inhibition) at 1uM” value is on record as 2.07%.
To `CCC(=O)c1ccc(OCC(=O)Nc2ccccc2N2CCCCC2)cc1` belongs 16%; to `O=c1cc(Cl)[nH]c(=O)n1Cc1ccccc1`, 16.3%.
As to `CN1C(=O)/C(=C/c2ccc(OCc3ccccc3F)cc2)N(C)C1=S`, the “hERG current change (%, negative = inhibition) at 1uM” value is listed as 15.4%.
Consider `Cc1ccc(NC2CCCN(C(=O)c3cn(C)c4ccccc34)C2)cc1C` (stereo not drawn), for which the “hERG current change (%, negative = inhibition) at 1uM” value was 4.12%.
To `O=C(CSCCO)Nc1nccs1` belongs 3.75%; to `O=C(c1ccncc1)N1CCN(C(=O)c2ccncc2)CC1`, 14.6%; to `O=C(COc1ncnc2ccccc12)Nc1ccc(Cl)c([N+](=O)[O-])c1`, 9.12%.
To `Cc1cccc(NC(=O)NNC(=O)c2sccc2-n2cccc2)c1` belongs 16.5%.
As to `COc1ccccc1CNS(=O)(=O)c1ccc2c(c1)CC(=O)N2C`, the “hERG current change (%, negative = inhibition) at 1uM” value was 10.8%.
With `COc1cc(Br)cc(CN2CCN(c3ncccn3)CC2)c1O`, the “hERG current change (%, negative = inhibition) at 1uM” value is given as 11.5%.
For the compound `CCCCC(=O)Nc1cc(OC)c(NC(=S)NC)cc1OC`, the “hERG current change (%, negative = inhibition) at 1uM” value turned out to be 19.2%.
Regarding `Cc1cc(NC(=O)COC(=O)CCNS(=O)(=O)c2c(Cl)cccc2Cl)no1`, the “hERG current change (%, negative = inhibition) at 1uM” value came to 4.64%.
Next, `CC(C)Oc1ccc(CCC(=O)NNC(=S)NCc2ccccc2)cc1`: 8.49%; `CC(=O)C(Sc1nnnn1-c1ccccc1)C(C)=O`: 10.1%.
To `Cn1c(=O)c2sccc2n(Cc2cccc(Br)c2)c1=O` belongs 6.28%.
As for `CCN(CC)CCNC(=O)c1ccc(NC(=O)Cc2ccsc2)cc1`, the “hERG current change (%, negative = inhibition) at 1uM” value was determined as 21.2%.
In the case of `O=C(N1CCOCC1)N1c2ccccc2CC(N2CCOCC2)c2ccccc21` (stereo not drawn), the “hERG current change (%, negative = inhibition) at 1uM” value is 17%.
`CC1CCN(C(=O)C(C)Cl)CC1` (stereo not drawn): the “hERG current change (%, negative = inhibition) at 1uM” value came out at 21.7%.
`O=C1c2cccc3cccc(c23)C(=O)N1Cc1ccccc1`: the “hERG current change (%, negative = inhibition) at 1uM” value worked out at 12%.
For the compound `Nc1cc2c(cc1C(=O)c1ccc(Cl)cc1)OCCO2`, the “hERG current change (%, negative = inhibition) at 1uM” value is 9.8%.
On to `CC(C)(C)N(NC(=O)OCc1ccccc1)C(=O)c1ccccc1Cl`, for which the “hERG current change (%, negative = inhibition) at 1uM” value was -0.0463%.
`O=S(=O)(c1ccc(NC2CCCCC2)cc1)N1CCOCC1`: the “hERG current change (%, negative = inhibition) at 1uM” value is listed as 11.3%.
Next, `O=C(Nc1ccc(S(=O)(=O)N2CCOCC2)cc1)c1nn(-c2ccc(F)cc2)ccc1=O`: -6.24%; `Cc1ccc(SCCNC(=S)Nc2ccc(C)cc2C)cc1`: 13.4%; `Cc1cccc(C)c1NC(=O)CN(C)C(=O)c1cccc(-n2cccc2)c1`: 14.9%.
With `COc1ccc(-n2c(C)nc3cc(C(=O)NCCN4CCOCC4)ccc32)cc1`, the “hERG current change (%, negative = inhibition) at 1uM” value worked out at 7.27%.
Next, `O=C(/C=C/Sc1ccccc1)c1ccccc1`: 15.5%.
Next, `CC(=O)c1ccc(N2Cc3ccccc3/C2=N\C(=O)Nc2ccccc2)cc1`: 6.5%; `COCCNc1nnc(Cc2ccc(Cl)cc2)c(=O)[nH]1`: 12%.
For `O=C(NCc1ccc2c(c1)OCO2)c1ccc(C2SCC(=O)N2Cc2ccco2)cc1` (stereo not drawn), the “hERG current change (%, negative = inhibition) at 1uM” value was -2.52%.
`OC(CCc1ccncc1)c1ccccc1` (stereo not drawn): the “hERG current change (%, negative = inhibition) at 1uM” value is reported as 14.1%.
On to `Cc1ccc(C(=O)N/C(=C\c2cccc([N+](=O)[O-])c2)C(=O)NC(Cc2ccccc2)C(=O)O)cc1` (stereo not drawn), for which the “hERG current change (%, negative = inhibition) at 1uM” value amounted to 13.7%.
In the case of `O=C(COC(=O)CCNS(=O)(=O)c1ccccc1)NNC(=O)c1ccccc1`, the “hERG current change (%, negative = inhibition) at 1uM” value was 19.8%.
As to `Cc1nc(SCC(=O)c2c(N)n(C3CC3)c(=O)[nH]c2=O)[nH]c(=O)c1CCO`, the “hERG current change (%, negative = inhibition) at 1uM” value is 18.9%.
With `CCOC(=O)N1CCC(NC(=O)CS(=O)(=O)Cc2nc(-c3ccc(C)cc3)oc2C)CC1`, the “hERG current change (%, negative = inhibition) at 1uM” value is -1.25%.
In the case of `Cc1ccc(C(=O)CSc2nnc(-c3c[nH]c4ccccc34)o2)cc1`, the “hERG current change (%, negative = inhibition) at 1uM” value was determined as 14.5%.
As to `Cc1cc(C)cc(N(C(=O)c2cc3ccccc3oc2=O)C2C=CS(=O)(=O)C2)c1` (stereo not drawn), the “hERG current change (%, negative = inhibition) at 1uM” value was -6.82%.
In the case of `CCNS(=O)(=O)c1ccc(CCC(=O)N2CCC(C)CC2)cc1`, the “hERG current change (%, negative = inhibition) at 1uM” value was determined as 8.91%.
Next, `COC(=O)C1=C(C(=O)OC)SC2(S1)C(C(=O)OC)=C(C(=O)OC)SC1=C2c2cc(C)ccc2NC1(C)C`: 11%; `COc1ccc(OC)c(/C=N/NC(=O)CSc2cc(C)nc3c(OC)cccc23)c1`: 10.1%; `O=C(c1ccc2c(c1)OCO2)N1CCN(S(=O)(=O)c2ccc(Cl)cc2)CC1`: 7.66%.
For the compound `CN(C)c1c2ccccc2nc2c(F)c(F)c(F)c(F)c12`, the “hERG current change (%, negative = inhibition) at 1uM” value is 15.6%.
On to `Cc1ccc2[nH]cc(CCNC(=O)c3ccco3)c2c1`, for which the “hERG current change (%, negative = inhibition) at 1uM” value was 12.3%.
On to `O=C(O)c1ccc(CSc2nc(-c3ccc(Cl)cc3)cc(C(F)(F)F)n2)cc1`, for which the “hERG current change (%, negative = inhibition) at 1uM” value is 16%.
Consider `COc1ccc(OC)c(CNC(=O)C2CCN(S(C)(=O)=O)CC2)c1`, for which the “hERG current change (%, negative = inhibition) at 1uM” value turned out to be 9.28%.
With `CN1CCN(c2ccc([N+](=O)[O-])c3no[n+]([O-])c23)CC1`, the “hERG current change (%, negative = inhibition) at 1uM” value was found to be 0.869%.
Regarding `COc1cccc(NC(=O)CN(C)C(=O)CC(C)c2ccccc2)c1` (stereo not drawn), the “hERG current change (%, negative = inhibition) at 1uM” value was 15.7%.
For the compound `O=C(/C=C/c1ccc(Cl)cc1Cl)NC(=S)Nc1ccccn1`, the “hERG current change (%, negative = inhibition) at 1uM” value stood at 11.1%.
Consider `Cc1c(Cl)cccc1NC(=O)CNC(=O)c1cn(-c2ccccc2)nc1-c1cccnc1`, for which the “hERG current change (%, negative = inhibition) at 1uM” value came to 3.8%.
To `Cc1ccccc1NS(=O)(=O)c1ccc(NC(=O)c2ccco2)cc1` belongs 13.4%; to `Cc1ccc(S(=O)(=O)Nc2ncc(C(F)(F)F)cc2Cl)cc1`, 18.1%; to `CSc1ccc(C(=S)N2CCN(CCO)CC2)cc1`, 14.1%.
To `CNc1nc(Sc2ccc(C)cc2)cc(C(F)(F)F)n1` belongs 12.9%; to `Cc1cc(NCCN2CCOCC2)n2c(nc3ccccc32)c1C#N`, 5.51%.
Next, `CCOC(=O)c1ccc(CNC(=O)CSc2nnc(-c3ccncc3)o2)cc1`: 10.4%.
In the case of `Cn1c(O)c(/C=N/N2CCOCC2)c(=O)n(C)c1=S`, the “hERG current change (%, negative = inhibition) at 1uM” value amounted to 7.31%.
Turning to `Cn1c(=O)[nH]c(=O)c2c1[nH]c(=S)n2Cc1ccc(Cl)cc1`, the “hERG current change (%, negative = inhibition) at 1uM” value is recorded as 8.17%.
As to `CCOc1ccc(NC2c3ccccc3C(=O)N2c2ccc(Cl)cn2)cc1` (stereo not drawn), the “hERG current change (%, negative = inhibition) at 1uM” value came to 17.8%.
Next, `CC(=O)N1CCc2c(sc(NC(=O)C3COc4ccccc4O3)c2C(N)=O)C1` (stereo not drawn): -5.19%.
Turning to `Cc1cccc(C)c1NC(=O)CNC(=O)c1ccc(N2CCCC2)c([N+](=O)[O-])c1`, the “hERG current change (%, negative = inhibition) at 1uM” value is listed as -2.53%.
Next, `CCN(c1ccccc1)S(=O)(=O)c1ccc(C(C(=O)OC)C(=O)OC)c([N+](=O)[O-])c1`: 13.7%.
To `O=C(NCCNc1ccc([N+](=O)[O-])cc1C(F)(F)F)c1cccc(F)c1` belongs -0.818%; to `Cc1cc(C)n2nc(C(=O)OCC(=O)Nc3ccc4c(c3)OCO4)nc2n1`, 3.56%; to `COc1cc2cc(C(=O)N[C@@H](Cc3ccccc3)C(=O)O)n(C)c2c(OC)c1OC`, 12.9%.
As for `COc1ccc(CC(=O)O/N=C(\N)c2ccc(OC)cc2)cc1`, the “hERG current change (%, negative = inhibition) at 1uM” value was -0.144%.
With `COc1ccccc1N1CCN(/N=C\c2cccnc2)CC1.Cl`, the “hERG current change (%, negative = inhibition) at 1uM” value was 11.8%.
With `Cc1ccc(-n2nnnc2SCC(=O)c2cc(C)n(CC3CCCO3)c2C)cc1` (stereo not drawn), the “hERG current change (%, negative = inhibition) at 1uM” value is given as 9.93%.
Regarding `CCCCCCCC1CC(CSc2ncn[nH]2)OC1=O` (stereo not drawn), the “hERG current change (%, negative = inhibition) at 1uM” value is 6.43%.
With `CN(Cc1cnccn1)Cc1cn(Cc2ccccc2)nc1-c1ccc2c(c1)OCO2`, the “hERG current change (%, negative = inhibition) at 1uM” value was 5.86%.
For the compound `COc1cccc(NC(=O)Cn2c(CCC(=O)O)ccc2-c2ccc(Cl)cc2)c1`, the “hERG current change (%, negative = inhibition) at 1uM” value worked out at 13%.
As for `O=C(Cc1ccc([N+](=O)[O-])cc1)N1CCN(Cc2ccc3c(c2)OCO3)CC1`, the “hERG current change (%, negative = inhibition) at 1uM” value is -28%.
To `CCOc1ccc(NC(C)=O)cc1` belongs 2.38%; to `CCCCn1c(SCC(=O)c2ccccc2)nc2ccsc2c1=O`, 11%; to `CC(NCC(O)COCCC12CC3CC(CC(C3)C1)C2)c1ccccc1.Cl` (stereo not drawn), 11.7%.
On to `Cc1ccc2c(c1)C(c1ccccc1)N(C(=O)c1cccc([N+](=O)[O-])c1)CC(=O)N2` (stereo not drawn), for which the “hERG current change (%, negative = inhibition) at 1uM” value is recorded as 3.99%.
`Cc1ccc2sc(NNC(=O)c3cc(=O)c4ccccc4o3)nc2c1C`: the “hERG current change (%, negative = inhibition) at 1uM” value came to 12.8%.
For `CCN(C(=O)COC(=O)CC(C)c1ccccc1)c1c(N)n(Cc2ccccc2)c(=O)[nH]c1=O` (stereo not drawn), the “hERG current change (%, negative = inhibition) at 1uM” value is given as 17.7%.
As to `O=[N+]([O-])c1ccc(S(=O)(=O)Nc2nc(-c3ccccc3)cs2)cc1`, the “hERG current change (%, negative = inhibition) at 1uM” value amounted to 14.5%.
`O=C(Cn1nc(-c2ccccc2)ccc1=O)NCc1ccc2c(c1)OCO2`: the “hERG current change (%, negative = inhibition) at 1uM” value was -3.55%.
Regarding `COc1ccccc1NS(=O)(=O)c1cccc(C(=O)N/N=C/c2ccccc2OCC(=O)O)c1`, the “hERG current change (%, negative = inhibition) at 1uM” value was found to be 7.73%.
`CSc1ccc(CCNC(=O)c2nn(C)c3c2CS(=O)(=O)c2ccccc2-3)cc1`: the “hERG current change (%, negative = inhibition) at 1uM” value is -0.0108%.
